Test results as given in PMC4336329 (PLoS ONE, 2015).
The whole screen tested about 310,000 compounds, of which about 2,200 (0.71%) showed an effect of 50% or more. Effects have a minus sign here. The list shows a part of the results.

molecular target: human ether-à-go-go-related gene (hERG) potassium channel (human, UniProt Q12809); assay: primary screen, population patch clamp on CHO cells stably expressing hERG
Sequence (Q12809 whole entry, looked up): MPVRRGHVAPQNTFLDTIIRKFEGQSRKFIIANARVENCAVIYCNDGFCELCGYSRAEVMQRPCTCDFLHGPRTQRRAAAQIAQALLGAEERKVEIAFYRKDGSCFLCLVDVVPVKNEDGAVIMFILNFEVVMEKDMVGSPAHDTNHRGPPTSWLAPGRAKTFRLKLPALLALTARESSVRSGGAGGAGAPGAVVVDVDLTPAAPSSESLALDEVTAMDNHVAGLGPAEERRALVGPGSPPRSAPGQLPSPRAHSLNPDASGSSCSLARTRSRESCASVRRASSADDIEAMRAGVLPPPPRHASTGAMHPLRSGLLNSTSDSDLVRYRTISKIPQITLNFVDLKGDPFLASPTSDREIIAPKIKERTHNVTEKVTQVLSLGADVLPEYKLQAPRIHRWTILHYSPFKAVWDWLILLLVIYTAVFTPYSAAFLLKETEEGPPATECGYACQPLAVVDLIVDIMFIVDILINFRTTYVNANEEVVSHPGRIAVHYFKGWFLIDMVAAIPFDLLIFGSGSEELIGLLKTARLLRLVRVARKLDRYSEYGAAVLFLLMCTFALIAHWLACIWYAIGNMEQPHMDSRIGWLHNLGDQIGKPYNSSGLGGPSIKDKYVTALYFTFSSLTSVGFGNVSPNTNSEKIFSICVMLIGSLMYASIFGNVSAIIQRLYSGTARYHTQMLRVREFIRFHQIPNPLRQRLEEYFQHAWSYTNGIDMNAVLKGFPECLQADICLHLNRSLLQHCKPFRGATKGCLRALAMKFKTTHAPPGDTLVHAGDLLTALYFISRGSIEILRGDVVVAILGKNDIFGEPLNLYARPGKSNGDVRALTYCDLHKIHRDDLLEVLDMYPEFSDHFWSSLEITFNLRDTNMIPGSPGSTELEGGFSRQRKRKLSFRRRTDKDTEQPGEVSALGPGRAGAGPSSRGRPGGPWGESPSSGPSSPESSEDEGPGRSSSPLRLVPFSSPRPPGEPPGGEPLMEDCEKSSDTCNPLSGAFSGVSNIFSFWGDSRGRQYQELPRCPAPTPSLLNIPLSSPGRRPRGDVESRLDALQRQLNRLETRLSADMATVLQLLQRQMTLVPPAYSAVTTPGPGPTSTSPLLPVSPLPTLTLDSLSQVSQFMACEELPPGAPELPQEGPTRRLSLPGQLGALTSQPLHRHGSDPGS

Compound	hERG current change (%, negative = inhibition) at 1uM [%]
CCOc1cccc(-c2nnc3sc(-c4cccs4)nn23)c1	1.84
C=CCNCCOc1c(C)cc(C)cc1Cl.O=C(O)C(=O)O	5.06
Cc1ccccc1NC(=O)c1ccc(CN2CCC(Cc3ccccc3)CC2)cc1	-38
COc1cc([N+](=O)[O-])ccc1NC(=O)NNC(=O)C(C)Oc1ccc(F)cc1F (stereo not shown)	2.74
Cc1sc2ncnc(SCC(=O)N3CCOCC3)c2c1C	12
O=C(O)C(=O)O.O=C(c1cccs1)N1CCN(Cc2cccnc2)CC1	12.2
CC1C(=O)CCCCCCCCCC2C1(N1CCOCC1)CS2(=O)=O (stereo not shown)	0.765
Fc1ccc(-c2ccnc3nc(-n4cccc4)nn23)cc1	1.47
CSc1ccccc1NC(=O)CCc1ccccc1	0.485
COc1ccc2oc(=O)c(C(=O)NCc3ccco3)cc2c1	15.4
O=C(Cc1ccccc1)NN1C(=O)C2C(C1=O)C1C=CC2C12CC2 (stereo not shown)	5.59
CCOC(=O)C1CCN(CC(=O)N(CC(C)C)c2c(N)n(CC(C)C)c(=O)[nH]c2=O)CC1	2.99
Cc1cc(Nc2ccccc2)nc(N2CCOCC2)n1	4.19
C/C=C(/C)C(=O)O[C@@H]1c2c(ccc3ccc(=O)oc23)O[C@@H]1C(C)(C)OC(C)=O	9.43
COc1ccc(-c2ccc(=O)n(Cc3c(F)cccc3Cl)n2)cc1	10.8
CCCc1cc(C(=O)Nc2ccc(F)cc2F)no1	9.78
Cc1cc(C)cc(NC(=O)C2CC3CCC2C3)c1 (stereo not shown)	14.9
COc1ccc(CNC(=O)CN2CCN(c3ccccc3)CC2)cc1	13.1
Cc1ccc(S(=O)(=O)N(C)c2ccccc2C(=O)Nc2ccc(F)cc2F)cc1	17.9
COc1ccc(NC(=O)c2cn(CCC#N)nc2-c2ccc([N+](=O)[O-])cc2)cc1	7.94
CCCCn1c(N)c(N(Cc2ccccc2OC)C(=O)C2=COCCO2)c(=O)[nH]c1=O	17.1
CSCCC(NC(=O)C12CC3CC(CC(C3)C1)C2)C(=O)OCC(=O)c1ccc(C)cc1 (stereo not shown)	19.7

Compound	hERG current change (%, negative = inhibition) at 1uM [%]
Cc1nn(-c2ccccc2)c(N2CCCC2)c1/C=N/NC(=O)c1ccccc1O	6.99
CC(=O)C1=C(C)N(CC2CC2)C(=O)N[C@H]1c1ccccc1	16.4
Cc1noc(-c2ccc(Cl)cc2)c1C(=O)O/N=C(\N)c1ccc(C(C)(C)C)cc1	5.65
COC(=O)C1=C(O)/C(=C\c2ccc(CNS(=O)(=O)c3ccccc3)o2)N=C1C	-1.79
COc1ccc(C)cc1NC(=O)C1CCCN(S(=O)(=O)c2ccc(-n3cnnn3)cc2)C1 (stereo not shown)	-71.4
COc1ccccc1N1CCN(c2nc(C)cc(C)c2C#N)CC1	11.5
Cc1ccc(CNC(=O)Cn2nnc3ccccc3c2=O)cc1	8.75
COc1cccc(NC(=O)C2(S(=O)(=O)c3ccc(Cl)cc3)CC2)c1	5.39
CCOc1cc(C(=O)OCC(=O)c2c(N)n(C)c(=O)n(C)c2=O)cc(OCC)c1OCC	-3.92
CC(C)CN(CCCNC(=O)CN1C(=O)COc2ccc(S(=O)(=O)N3CCC(C)CC3)cc21)CC(C)C	9.07
CN1CCN(c2nc(Cl)ncc2F)CC1	4.77
Cc1cccc(NC(=S)NC2CCCCC2)n1	3.02
CSCCC(NS(=O)(=O)c1ccccc1F)C(=O)NCC(c1ccc(F)cc1)N1CCOCC1 (stereo not shown)	7.37
O=C(Nc1ccccc1Cl)N1CCN(c2ccc3nnc(-c4ccc(F)cc4)n3n2)CC1	-23.7
Cc1ccc(C(=O)NC(=S)NNC(=O)CC#N)cc1	17.7
COCCN(C(=O)c1ccccc1)c1nc(-c2ccc(OC)cc2)cs1	11.5
O=C(O)c1cccc(Cn2cc(Cl)cn2)c1	11.4
Cc1ccccc1N1C(=O)CC(Sc2nnc(-c3ccccc3)o2)C1=O (stereo not shown)	5.38
CC12CC3CC(C)(C1)CC(C(=O)Nc1nncs1)(C3)C2	13.7
CCN(CC)S(=O)(=O)c1ccc(NC(=O)Cn2c(=O)oc3ccccc32)cc1	13.6
COc1ccc(-n2c(C)cc(C(=O)CN3C(=O)C(=O)N(Cc4ccccc4)C3=O)c2C)cc1	10.6
CC(C)NS(=O)(=O)c1ccc(OCC(=O)NC2CCCCCC2)cc1	16.3

Compound	hERG current change (%, negative = inhibition) at 1uM [%]
COc1ccc(S(=O)(=O)Nc2cc3c4c(c2)CC(=O)N4CCC3)cc1C	6.54
O=C(NCCC(=O)N1CCC2(CC1)NCCc1[nH]cnc12)c1cccc(C(F)(F)F)c1	15
O=C(Nc1cccc(Cl)c1)OCc1cn(-c2ccccc2)nn1	-16.2
Cc1cccc(NC(=O)c2cccnc2Cl)n1	15.5
CCCc1nc2ccccc2c(C(=O)OCC(=O)NCc2ccc3c(c2)OCO3)c1CC	8.88
O=C(NCC1CCCN1S(=O)(=O)c1cccs1)c1cccc([N+](=O)[O-])c1 (stereo not shown)	1.31
CCOc1ccc(C2/C(=C(\O)c3c(C)[nH]c(C(=O)OC)c3C)C(=O)C(=O)N2CCN(C)C)cc1 (stereo not shown)	-2.61
O=C(O)C(=O)O.O=C(c1ccco1)N1CCN(Cc2ccc(Br)cc2)CC1	-2.49
CCN(C(=O)C1CCCN1S(=O)(=O)c1ccc2c(c1)n(C)c(=O)c(=O)n2C)c1ccccc1 (stereo not shown)	0.439
Cc1cc2nc(C)c(=O)n(C)c2cc1C	18.9
O=C(Nc1cc(S(=O)(=O)N2CCOCC2)ccc1O)c1ccco1	-3.59
COC(=O)COc1cccc2c(=O)n(CC(=O)NCc3ccc(F)cc3)ccc12	5.11
Clc1ccc(C=NC23CN4CN(CN(C4)C2)C3)cc1	7.81
COC(CNC(=O)C1CCN(S(=O)(=O)c2ccc3nc4c(c(C(=O)O)c3c2)CC(C)CC4)CC1)OC (stereo not shown)	38.6
CCOC(=O)Cn1c(CN(C)Cc2ccccc2)nc2c1c(=O)n(C)c(=O)n2C	5.38
Cc1cccc(CCNC(=O)Cc2ccc(NC3=NC4CS(=O)(=O)CC4S3)cc2)c1 (stereo not shown)	12.6
O=C(NC1CCN(S(=O)(=O)c2ccccc2)CC1)C1CCCCC1	12.1
CCOC(=O)CSc1cc(CSc2ccccc2)nc(-c2ccccc2)n1	6.5
CCc1ccc2oc(C(=O)Nc3nonc3C)c(C)c2c1	3.34
COc1ccc(C(c2sc3nc(C)nn3c2O)N2CCCCC2)cc1 (stereo not shown)	16.6
CCO.CCOC(=O)C1=C(C)Nc2sc(C(=O)c3ccc(OC)cc3)c(N)c2C1c1ccc(C(=O)OC)cc1 (stereo not shown)	6.77
CCOC(=O)C1CCN(c2c(C(=O)c3ccccc3)cnc3ccc(Cl)cc23)CC1	10.8

Compound	hERG current change (%, negative = inhibition) at 1uM [%]
O=S(=O)(NCCc1csc(-c2cccnc2)n1)c1cccc(F)c1	4.96
O=[N+]([O-])c1ccc(N2CCNCC2)cc1NCC1CCCO1 (stereo not shown)	-0.5
CCCc1ccc(OCC(O)CN2CCN(CCO)CC2)cc1.Cl (stereo not shown)	8.14
Cc1ccc(N=C/C(C(=O)C(F)(F)F)=C(\O)c2ccco2)cc1Cl	-3.55
CCCn1c(SCC(=O)NCc2ccccc2)n[nH]c1=O	18.1
Cc1nc2ccccc2n1CC(=O)OCC(=O)NC1CC1	16.5
CC1(c2cccc(Br)c2)NC(=O)N(CC(=O)NC2CCCCC2)C1=O (stereo not shown)	-6.62
COC(=O)C(CC(=O)c1ccc(Br)cc1)n1nc(C)cc1C (stereo not shown)	14.3
O=C(C[n+]1cccc2ccccc21)c1ccc(Cl)cc1.[Br-]	8.92
CCn1c(SCC(=O)N/N=C/C=C\c2ccco2)nc2ccccc21	16.4
CC1(C)CC(CNCCC(c2ccc(F)cc2)c2ccco2)CCO1 (stereo not shown)	-18.7
S=c1sc(SCCOc2ccccc2)nn1-c1ccccc1	-2.64
O=C(COc1ccc(Br)cc1CNC1CCCCC1)NCCc1ccccc1	-59
O=C(Nn1cnnc1)c1ccc(Br)s1	20.2
CC(C)NC(=O)c1onc(CSc2ccccc2)c1C(=O)O	10
Fc1ccc(-c2csc3ncnc(N4CCc5ccccc5C4)c23)cc1	6.49
NC(=O)COC(=O)c1ccc(S(=O)(=O)NCc2ccco2)cc1	12.5
CCc1cc(C(=O)N/N=C/c2ccc(O)cc2)c2ccccc2n1	9.78
CCOC(=O)c1c(NC(=O)c2cccc([N+](=O)[O-])c2C(=O)O)sc2c1CCCC2	11.9
COc1ccc(NC(=O)C/C(C)=N/NC(=O)c2ccccn2)c(OC)c1	9.32
O=C(CN(C(=O)CCC(=O)Nc1ccccn1)c1cccc(F)c1)NCc1ccco1	15.7
CCOc1ccc(N2C(=O)CC(Sc3ccccc3C(=O)O)C2=O)c([N+](=O)[O-])c1 (stereo not shown)	2.89
